This is an account of results in PMC4336329 (PLoS ONE, 2015).

Among all 310,000 compounds or so, about 2,200 (0.71%) showed an effect of 50% or more. Effects have a minus sign here. Some of the results follow.

Sequence of human ether-à-go-go-related gene (hERG) potassium channel (Q12809 whole entry, looked up): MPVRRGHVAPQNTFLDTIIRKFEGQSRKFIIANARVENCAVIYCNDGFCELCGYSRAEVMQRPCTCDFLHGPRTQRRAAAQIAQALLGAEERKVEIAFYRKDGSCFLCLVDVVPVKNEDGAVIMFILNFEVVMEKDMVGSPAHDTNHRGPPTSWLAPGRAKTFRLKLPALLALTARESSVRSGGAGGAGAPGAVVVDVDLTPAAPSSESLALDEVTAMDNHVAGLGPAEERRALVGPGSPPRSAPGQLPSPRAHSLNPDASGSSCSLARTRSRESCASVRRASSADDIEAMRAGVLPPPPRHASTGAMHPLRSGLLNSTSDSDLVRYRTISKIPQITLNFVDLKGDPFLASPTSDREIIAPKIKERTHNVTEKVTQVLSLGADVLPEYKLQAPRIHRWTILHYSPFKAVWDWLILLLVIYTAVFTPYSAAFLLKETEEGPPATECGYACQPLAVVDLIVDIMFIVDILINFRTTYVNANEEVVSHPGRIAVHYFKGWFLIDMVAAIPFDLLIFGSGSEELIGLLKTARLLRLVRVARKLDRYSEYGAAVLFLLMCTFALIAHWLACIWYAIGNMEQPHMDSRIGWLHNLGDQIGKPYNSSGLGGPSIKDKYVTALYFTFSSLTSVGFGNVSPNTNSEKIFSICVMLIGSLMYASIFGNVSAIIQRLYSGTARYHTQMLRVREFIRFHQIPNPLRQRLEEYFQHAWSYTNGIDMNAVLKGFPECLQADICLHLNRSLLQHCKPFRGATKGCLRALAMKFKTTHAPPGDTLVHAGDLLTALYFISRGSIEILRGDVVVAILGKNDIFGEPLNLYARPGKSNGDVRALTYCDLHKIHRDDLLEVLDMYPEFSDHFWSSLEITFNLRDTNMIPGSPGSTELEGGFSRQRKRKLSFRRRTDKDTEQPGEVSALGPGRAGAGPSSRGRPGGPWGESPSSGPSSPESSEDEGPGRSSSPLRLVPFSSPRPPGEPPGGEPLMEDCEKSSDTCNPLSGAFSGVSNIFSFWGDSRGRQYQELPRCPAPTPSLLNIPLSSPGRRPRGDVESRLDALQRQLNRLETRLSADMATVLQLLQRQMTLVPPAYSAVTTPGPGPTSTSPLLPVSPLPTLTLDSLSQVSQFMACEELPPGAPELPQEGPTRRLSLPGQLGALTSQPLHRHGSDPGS

This assay concerns the target human ether-à-go-go-related gene (hERG) potassium channel (human, UniProt Q12809). Description: primary screen, population patch clamp on CHO cells stably expressing hERG.
Turning to `O=C(COc1ccc(C(=S)N2CCC(Cc3ccccc3)CC2)cc1)N1CCOCC1`, the “hERG current change (%, negative = inhibition) at 1uM” value came to 6.4%.

As to `O=C(c1cccs1)c1coc2ccc(O)cc12`, the “hERG current change (%, negative = inhibition) at 1uM” value came out at 8.05%.

For the compound `CCn1c(=O)n(CC(=O)NC2CCCC(C)C2C)c(=O)c2ccccc21` (centres unmarked), the “hERG current change (%, negative = inhibition) at 1uM” value is given as -1.43%.

In the case of `Clc1ccc(Nc2nc(-c3ccncc3)cs2)cc1`, the “hERG current change (%, negative = inhibition) at 1uM” value is reported as 7.92%.

Regarding `COc1cc2sc(NC(=O)c3ccco3)nc2cc1Cl`, the “hERG current change (%, negative = inhibition) at 1uM” value worked out at 12.7%.

Regarding `CCC(=O)N(Cc1cc2c(C)cc(C)cc2[nH]c1=O)C1CCCCC1`, the “hERG current change (%, negative = inhibition) at 1uM” value is -0.212%.

For the compound `COc1ccc(-c2cn3c(C)c(C(=O)NC(C)C)sc3n2)cc1`, the “hERG current change (%, negative = inhibition) at 1uM” value is on record as 7.93%.

Take `O=C(COC(=O)CNC(=O)C1CCCCC1)Nc1ccccc1Cl`: the “hERG current change (%, negative = inhibition) at 1uM” value stood at 22.1%.

Take `CCOC(=O)/C(C#N)=N/Nc1ccccc1C(=O)O`: the “hERG current change (%, negative = inhibition) at 1uM” value is listed as 16.4%.

With `CCOC(=O)Cn1c(=NC(=O)C(C)C)sc2c(C)cc(C)cc21`, the “hERG current change (%, negative = inhibition) at 1uM” value worked out at 6.6%.

For the compound `Cc1ccc(-c2nnc(NC3CCCC3)s2)cc1`, the “hERG current change (%, negative = inhibition) at 1uM” value is on record as -1.73%.

Take `Cc1ccccc1C(=O)NNc1ccc(-c2csnn2)cc1`: the “hERG current change (%, negative = inhibition) at 1uM” value was -4.49%.

Regarding `COC(=O)[C@H](CC(C)C)NC(=O)NC1CCCCC1C` (some centres unmarked), the “hERG current change (%, negative = inhibition) at 1uM” value was 8.65%.

On to `CC(C)C(CCN1C(=O)c2ccccc2C1=O)c1ccco1` (centres unmarked), for which the “hERG current change (%, negative = inhibition) at 1uM” value is listed as -0.472%.

In the case of `Br.CCCn1c(=N)n(CC(=O)c2ccc([N+](=O)[O-])cc2)c2ccccc21`, the “hERG current change (%, negative = inhibition) at 1uM” value was -38.9%.

As for `COc1ccc(C(=O)NCc2cn3ccsc3n2)cc1OC`, the “hERG current change (%, negative = inhibition) at 1uM” value was 13.3%.

In the case of `O=C(Nc1cccc(C(F)(F)F)c1)c1sc(Cl)nc1C(F)(F)F`, the “hERG current change (%, negative = inhibition) at 1uM” value was 14.1%.

As to `O=C(COc1ccc(/C=N/NS(=O)(=O)c2ccccc2)cc1)NCc1ccccc1`, the “hERG current change (%, negative = inhibition) at 1uM” value was 11.2%.

`CCc1nnc(NC(=O)c2ccc(OCc3c(C)noc3C)c(OC)c2)s1`: the “hERG current change (%, negative = inhibition) at 1uM” value is reported as 6.83%.

With `CS(=O)(=O)N(CC(=O)NCCSCc1ccccc1)c1ccccc1Cl`, the “hERG current change (%, negative = inhibition) at 1uM” value was -1.46%.

As to `O=C(CCn1cccn1)Nc1ccc2c(c1)OCO2`, the “hERG current change (%, negative = inhibition) at 1uM” value was 9.43%.

Turning to `CCc1ccc(C2=NN(CCC(=O)NCc3cccs3)C(=O)CC2)cc1`, the “hERG current change (%, negative = inhibition) at 1uM” value is on record as 1.59%.

As for `O=C(N1CCN(Cc2ccc3c(c2)OCO3)CC1)C12CC3CC(CC(C3)C1)C2`, the “hERG current change (%, negative = inhibition) at 1uM” value was found to be 8.52%.

`CC(C)Oc1ccc(C(=O)NC(=S)N2CCOCC2)cc1`: the “hERG current change (%, negative = inhibition) at 1uM” value is 6.62%.

Take `CC(NC(=S)Nc1ccccc1OC(F)F)C(C)(C)C` (centres unmarked): the “hERG current change (%, negative = inhibition) at 1uM” value came to 1.33%.

Consider `CN(C)Cc1ccccc1OC(=O)N(C)C.O=C(O)/C=C/C(=O)O`, for which the “hERG current change (%, negative = inhibition) at 1uM” value was found to be 2.93%.

As to `O=C(COc1ccc(N2C(=O)c3ccccc3C2=O)cc1)c1ccccc1`, the “hERG current change (%, negative = inhibition) at 1uM” value worked out at 21.4%.

Regarding `O=C(NCc1ccc(F)cc1)C1CCN(S(=O)(=O)N2CCOCC2)CC1`, the “hERG current change (%, negative = inhibition) at 1uM” value is 13%.

Turning to `CCN(CC(=O)Nc1ccc(OC)cc1)CC(=O)Nc1ccc2c(c1)OCO2`, the “hERG current change (%, negative = inhibition) at 1uM” value is -9.11%.

Turning to `COc1ccc(NC(=O)CSc2nnc(-c3ccco3)n2C)cc1`, the “hERG current change (%, negative = inhibition) at 1uM” value is 6.35%.

Regarding `Cc1sc(NC(=O)CN2CCCC2)nc1-c1ccc2c(c1)CCN2C(=O)c1ccc(F)cc1`, the “hERG current change (%, negative = inhibition) at 1uM” value is on record as 15.4%.

With `O=C(CCc1ccccc1)Nc1ncc([N+](=O)[O-])s1`, the “hERG current change (%, negative = inhibition) at 1uM” value came out at 10.2%.

On to `CC(C)(ONC(=O)Nc1ccccc1Cl)C(=O)O`, for which the “hERG current change (%, negative = inhibition) at 1uM” value came out at 10.3%.

For `O=P(O)(O)C(O)C(F)(F)C(F)(F)C(F)(F)C(F)F` (centres unmarked), the “hERG current change (%, negative = inhibition) at 1uM” value is 21.8%.

As to `O=C(COC(=O)/C=C/c1ccco1)NCc1ccc2c(c1)OCO2`, the “hERG current change (%, negative = inhibition) at 1uM” value worked out at 14%.

As to `Br.CCn1c(=N)n(Cc2ccccc2F)c2ccccc21`, the “hERG current change (%, negative = inhibition) at 1uM” value is -1.81%.

For `COCCN1Cc2cccc(C(=O)Nc3ccc(C)c(C)c3)c2C1=O`, the “hERG current change (%, negative = inhibition) at 1uM” value is 13.6%.

Consider `COC(=O)c1ccc(Oc2ccc3nncn3n2)cc1`, for which the “hERG current change (%, negative = inhibition) at 1uM” value was 2.62%.

Consider `CC(=O)c1cccc(CN2CCN(Cc3ccc(C)cc3)C(CCO)C2)c1` (centres unmarked), for which the “hERG current change (%, negative = inhibition) at 1uM” value is on record as -34.4%.

Take `Cc1cc(=O)[nH]c(SCC(=O)Nc2c(C)n(C)n(-c3ccccc3)c2=O)n1`: the “hERG current change (%, negative = inhibition) at 1uM” value was -2.17%.

In the case of `Cc1cc(NC(=O)c2cccc(Br)c2)no1`, the “hERG current change (%, negative = inhibition) at 1uM” value turned out to be 15%.

As for `COc1cccc2c(=O)n(CC(=O)N3CCCc4ccccc43)ccc12`, the “hERG current change (%, negative = inhibition) at 1uM” value turned out to be 4.3%.

For the compound `Cc1nc2cc(NC(=O)c3ccc(S(=O)(=O)N(C)c4ccccc4)cc3)ccc2o1`, the “hERG current change (%, negative = inhibition) at 1uM” value stood at 14.9%.

`COc1ccc(CNC(=O)c2ccc3c(=O)n(-c4ccccc4)c(=O)[nH]c3c2)cc1`: the “hERG current change (%, negative = inhibition) at 1uM” value turned out to be 12.5%.
